Some of the results follow. Sequences were assembled here from the parent chain. Inactive controls read about 0.05.
B1: TEV protease; numbered along this chain (parent)
chain: MGESLFKGPRDYNPISSSICHLTNESDGHTTSLYGIGFGPFIITNKHLFRRNNGTLVVQSLHGVFKVKDTTTLQQHLVDGRDMIIIRMPKDFPPFPQKLKFREPQREERICLVTTNFQTKSMSSMVSDTSCTFPSGDGIFWKHWIQTKDGQCGSPLVSTRDGFIVGIHSASNFTNTNNYFTSVPKNFMELLTNQEAQQWVSGWRLNADSVLWGGHKVFMVKPEEPFQPVKEATQL

Variants of: B1
Experiment: raw area under fraction-flipped curve 0-4 h after induction (AUC4h, not background-subtracted), DNA-recorder readout of cleavage of the substrate (dimensionless); higher = more cleavage of the substrate by the protease variant
Details: temperature: 34 °C; time window: 0-4 h after rhamnose induction
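Note: Bxb1 expression induced with 0.2% (w/v) L-rhamnose at OD600 near 0.5, cultures sampled hourly, flipped fraction per protease–substrate barcode pair counted by paired-end Illumina sequencing.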

Row | Variant | area with substrate ENLFFQS | area with substrate ENLGFQS | area with substrate ENLHFQS | area with substrate ENLKFQS | area with substrate ENLLFQS | area with substrate ENLNFQS | area with substrate ENLPFQS | area with substrate ENLQFQS | area with substrate ENLRFQS | area with substrate ENLSFQS | area with substrate ENLVFQS | area with substrate ENLIFQS | area with substrate ENLWFQS | area with substrate ENLDFQS | area with substrate ENLEFQS | area with substrate ENLMFQS | area with substrate ENLTFQS
1 | Q194L | 0.111 | 0.0542 | 0.0814 | 0.0847 | 0.069 | 0.0589 | 0.0734 | 0.0663 | 0.0622 | 0.0779 | 0.0958 | – | – | – | – | – | –
2 | Q105E | 0.0487 | 0.0402 | 0.0702 | 0.0703 | – | 0.0789 | 0.0529 | – | – | 0.0653 | – | – | – | – | – | – | –
3 | A207N | 0.0767 | 0.0598 | – | – | – | 0.0668 | 0.0593 | – | 0.0678 | – | 0.0772 | 0.0681 | 0.0441 | – | – | – | –
4 | A207P | 0.0747 | – | 0.0732 | – | 0.0811 | – | 0.0873 | – | 0.0684 | – | – | 0.0683 | 0.0581 | – | – | – | –
5 | S130D | 0.0666 | – | 0.0616 | 0.0725 | 0.0557 | 0.0742 | 0.0954 | – | – | – | – | – | 0.0759 | 0.075 | 0.0523 | 0.0885 | –
6 | V165A | – | – | 0.0457 | – | 0.0507 | 0.0549 | 0.0426 | 0.0344 | 0.0564 | 0.06 | – | 0.0589 | 0.0269 | – | 0.0468 | – | –
7 | T181P | – | – | 0.0524 | 0.073 | 0.0513 | – | 0.0568 | 0.0576 | 0.062 | 0.0678 | 0.164 | – | 0.0519 | 0.0534 | 0.0566 | 0.0606 | –
8 | T71P | 0.0856 | – | 0.0618 | 0.0618 | – | 0.0896 | 0.0432 | – | 0.0602 | – | 0.0784 | – | 0.0647 | – | – | – | –
9 | M122T | 0.102 | 0.073 | – | – | – | 0.0716 | 0.0565 | – | – | 0.0615 | – | 0.0729 | – | – | 0.0653 | – | 0.0612
10 | L77G | 0.0512 | 0.0509 | – | 0.0611 | 0.0867 | – | – | – | – | 0.0391 | 0.0531 | – | – | – | 0.0633 | – | –
11 | G214Y | 0.0647 | – | – | 0.0509 | – | 0.075 | 0.0498 | 0.0523 | – | 0.05 | – | – | 0.0615 | 0.0656 | – | – | –
12 | E195M | 0.0815 | – | 0.0688 | – | – | 0.0548 | – | – | 0.0821 | 0.0529 | – | – | 0.081 | 0.0709 | 0.0695 | – | –
13 | V200M | – | 0.0779 | 0.038 | 0.0665 | 0.062 | 0.0655 | 0.0805 | – | – | – | – | 0.0675 | – | 0.0637 | 0.0675 | 0.0604 | –
14 | E231A | – | 0.0797 | 0.0617 | – | – | 0.0581 | – | 0.0639 | 0.0731 | 0.0685 | – | 0.0883 | 0.0734 | 0.0578 | 0.0748 | 0.0548 | –
15 | V126E | 0.0751 | – | – | 0.0762 | 0.062 | – | 0.0638 | 0.04 | 0.0522 | – | – | 0.0695 | 0.067 | – | 0.0689 | – | –
16 | D69T | 0.0779 | – | 0.0989 | 0.0554 | 0.0631 | 0.0496 | 0.0628 | – | – | – | – | 0.0576 | – | – | – | – | 0.0566
17 | V229I | 0.0901 | – | 0.0708 | 0.0804 | – | 0.0614 | 0.0475 | – | 0.0673 | – | 0.113 | – | 0.0684 | – | – | – | 0.0617
18 | G153P | 0.0686 | – | – | 0.0459 | 0.0508 | 0.0499 | 0.0535 | 0.0559 | – | 0.0464 | 0.0398 | – | 0.0423 | 0.059 | 0.0419 | – | –
